From US20240076343A1 (CEPHALON, published 2024)

Columns and labels:
[1] = target: T1, recombinant human CD25 extracellular domain, C-terminal poly-histidine tagged (human, UniProt P01589 22-240); assay: BLI (Octet)
T1 construct: also called CD25/IL-2Rα; IL-2Rα
T1 sequence: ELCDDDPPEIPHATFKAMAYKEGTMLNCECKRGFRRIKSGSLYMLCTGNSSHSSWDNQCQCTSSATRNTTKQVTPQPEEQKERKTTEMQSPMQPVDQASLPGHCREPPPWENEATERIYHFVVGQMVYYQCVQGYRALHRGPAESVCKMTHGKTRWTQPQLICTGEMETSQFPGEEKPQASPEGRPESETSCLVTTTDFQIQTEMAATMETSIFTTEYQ

[2] = target: T2, recombinant human CD122 extracellular domain, C-terminal poly-histidine tagged (human, UniProt P14784 27-240); assay: BLI (Octet)
T2 construct: also called CD122/IL-2Rβ; IL-2Rβ
T2 sequence: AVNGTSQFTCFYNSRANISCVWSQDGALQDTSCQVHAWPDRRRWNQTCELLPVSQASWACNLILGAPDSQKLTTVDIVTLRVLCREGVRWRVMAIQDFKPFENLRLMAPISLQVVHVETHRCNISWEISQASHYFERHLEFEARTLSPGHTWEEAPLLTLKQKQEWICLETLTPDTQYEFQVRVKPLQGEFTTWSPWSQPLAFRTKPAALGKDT

| Binder | Kd [1] | koff [1] | kon [1] | binding result [2] | Kd [2] | koff [2] | kon [2] | binding result [1] |
| --- | --- | --- | --- | --- | --- | --- | --- | --- |
| 1H3-hIgG1-L6-hIL-2 (D20S) (other, Built as m13) heavy: EVQLVESGGGLVQPGRSLKLSCAVSGFTFSDYAMAWVRQAPKKGLEWVATISYDGSRTYYRDSVKGRFTISRDNAKITLYLQMDSLRSEDTATYYCARHGSGYFDYWGQGVMVTVSS[not shown - about 450 residues with a human IgG1 Fc and changes] light: DTVLTQSPALAVSPGERVTISCRASESVRTGVHWYQQKPGQQPKLLIYGASNLESGVPARFSGSGSGTDFTLTIDPVEADDTATYFCQQSWNDPFTFGSGTKLEIKRTVAAPSVFIFPPSDEQLKSGTASVVCLLNNFYPREAKVQWKVDNALQSGNSQESVTEQDSKDSTYSLSSTLTLSKADYEKHKVYACEVTHQGLSSPVTKSFNRGEC | 0.624 nM | 0.000109 s⁻¹ | 174000 M⁻¹ s⁻¹ | no binding (tested: 300 nM) |  |  |  |  |
| 1H3-hIgG1-L6-hIL-2 (D20W) (other, Built as m13) heavy: EVQLVESGGGLVQPGRSLKLSCAVSGFTFSDYAMAWVRQAPKKGLEWVATISYDGSRTYYRDSVKGRFTISRDNAKITLYLQMDSLRSEDTATYYCARHGSGYFDYWGQGVMVTVSS[not shown - about 450 residues with a human IgG1 Fc and changes] light: DTVLTQSPALAVSPGERVTISCRASESVRTGVHWYQQKPGQQPKLLIYGASNLESGVPARFSGSGSGTDFTLTIDPVEADDTATYFCQQSWNDPFTFGSGTKLEIKRTVAAPSVFIFPPSDEQLKSGTASVVCLLNNFYPREAKVQWKVDNALQSGNSQESVTEQDSKDSTYSLSSTLTLSKADYEKHKVYACEVTHQGLSSPVTKSFNRGEC | 1.01 nM | 0.00019 s⁻¹ | 187000 M⁻¹ s⁻¹ | no binding (tested: 300 nM) |  |  |  |  |
| 1H3-hIgG1-L6-hIL-2 (D20Y) (other, Built as m13) heavy: EVQLVESGGGLVQPGRSLKLSCAVSGFTFSDYAMAWVRQAPKKGLEWVATISYDGSRTYYRDSVKGRFTISRDNAKITLYLQMDSLRSEDTATYYCARHGSGYFDYWGQGVMVTVSS[not shown - about 450 residues with a human IgG1 Fc and changes] light: DTVLTQSPALAVSPGERVTISCRASESVRTGVHWYQQKPGQQPKLLIYGASNLESGVPARFSGSGSGTDFTLTIDPVEADDTATYFCQQSWNDPFTFGSGTKLEIKRTVAAPSVFIFPPSDEQLKSGTASVVCLLNNFYPREAKVQWKVDNALQSGNSQESVTEQDSKDSTYSLSSTLTLSKADYEKHKVYACEVTHQGLSSPVTKSFNRGEC | 1.42 nM | 0.000214 s⁻¹ | 151000 M⁻¹ s⁻¹ | no binding (tested: 300 nM) |  |  |  |  |
| 1H3-hIgG1-L6-hIL-2 (E15A) (other) heavy: EVQLVESGGGLVQPGRSLKLSCAVSGFTFSDYAMAWVRQAPKKGLEWVATISYDGSRTYYRDSVKGRFTISRDNAKITLYLQMDSLRSEDTATYYCARHGSGYFDYWGQGVMVTVSS[not shown - about 450 residues with a human IgG1 Fc and changes] light: DTVLTQSPALAVSPGERVTISCRASESVRTGVHWYQQKPGQQPKLLIYGASNLESGVPARFSGSGSGTDFTLTIDPVEADDTATYFCQQSWNDPFTFGSGTKLEIKRTVAAPSVFIFPPSDEQLKSGTASVVCLLNNFYPREAKVQWKVDNALQSGNSQESVTEQDSKDSTYSLSSTLTLSKADYEKHKVYACEVTHQGLSSPVTKSFNRGEC | 2.04 nM | 0.000235 s⁻¹ | 115000 M⁻¹ s⁻¹ |  | 8.89 nM | 0.00156 s⁻¹ | 175000 M⁻¹ s⁻¹ |  |
| 1H3-hIgG1-L6-hIL-2 (E15K) (other, Built as m13) heavy: EVQLVESGGGLVQPGRSLKLSCAVSGFTFSDYAMAWVRQAPKKGLEWVATISYDGSRTYYRDSVKGRFTISRDNAKITLYLQMDSLRSEDTATYYCARHGSGYFDYWGQGVMVTVSS[not shown - about 450 residues with a human IgG1 Fc and changes] light: DTVLTQSPALAVSPGERVTISCRASESVRTGVHWYQQKPGQQPKLLIYGASNLESGVPARFSGSGSGTDFTLTIDPVEADDTATYFCQQSWNDPFTFGSGTKLEIKRTVAAPSVFIFPPSDEQLKSGTASVVCLLNNFYPREAKVQWKVDNALQSGNSQESVTEQDSKDSTYSLSSTLTLSKADYEKHKVYACEVTHQGLSSPVTKSFNRGEC | 1.39 nM | 0.000237 s⁻¹ | 171000 M⁻¹ s⁻¹ |  | 3.56 nM | 0.000862 s⁻¹ | 242000 M⁻¹ s⁻¹ |  |
| 1H3-hIgG1-L6-hIL-2 (E15R) (other, Built as m13) heavy: EVQLVESGGGLVQPGRSLKLSCAVSGFTFSDYAMAWVRQAPKKGLEWVATISYDGSRTYYRDSVKGRFTISRDNAKITLYLQMDSLRSEDTATYYCARHGSGYFDYWGQGVMVTVSS[not shown - about 450 residues with a human IgG1 Fc and changes] light: DTVLTQSPALAVSPGERVTISCRASESVRTGVHWYQQKPGQQPKLLIYGASNLESGVPARFSGSGSGTDFTLTIDPVEADDTATYFCQQSWNDPFTFGSGTKLEIKRTVAAPSVFIFPPSDEQLKSGTASVVCLLNNFYPREAKVQWKVDNALQSGNSQESVTEQDSKDSTYSLSSTLTLSKADYEKHKVYACEVTHQGLSSPVTKSFNRGEC | 3.41 nM | 0.000323 s⁻¹ | 94800 M⁻¹ s⁻¹ |  | 3.69 nM | 0.000538 s⁻¹ | 146000 M⁻¹ s⁻¹ |  |
| 1H3-hIgG1-L6-hIL-2 (F42K/Y45R/D20A/E95A) (other, Built as m13) heavy: EVQLVESGGGLVQPGRSLKLSCAVSGFTFSDYAMAWVRQAPKKGLEWVATISYDGSRTYYRDSVKGRFTISRDNAKITLYLQMDSLRSEDTATYYCARHGSGYFDYWGQGVMVTVSS[not shown - human IgG1 constant region]SGGGGSAPTSSSTKKTQLQLEHLLLALQMILNGINNYKNPKLTRMLTKKFRMPKKATELKHLQCLEEELKPLEEVLNLAQSKNFHLRPRDLISNINVIVLALKGSETTFMCEYADETATIVEFLNRWITFCQSIISTLT light: DTVLTQSPALAVSPGERVTISCRASESVRTGVHWYQQKPGQQPKLLIYGASNLESGVPARFSGSGSGTDFTLTIDPVEADDTATYFCQQSWNDPFTFGSGTKLEIKRTVAAPSVFIFPPSDEQLKSGTASVVCLLNNFYPREAKVQWKVDNALQSGNSQESVTEQDSKDSTYSLSSTLTLSKADYEKHKVYACEVTHQGLSSPVTKSFNRGEC |  |  |  | no binding (tested: 300 nM) |  |  |  | no binding (tested: 300 nM) |
| 1H3-hIgG1-L6-hIL-2 (F42K/Y45R/D20A/S87A) (other, Built as m13) heavy: EVQLVESGGGLVQPGRSLKLSCAVSGFTFSDYAMAWVRQAPKKGLEWVATISYDGSRTYYRDSVKGRFTISRDNAKITLYLQMDSLRSEDTATYYCARHGSGYFDYWGQGVMVTVSS[not shown - human IgG1 constant region]SGGGGSAPTSSSTKKTQLQLEHLLLALQMILNGINNYKNPKLTRMLTKKFRMPKKATELKHLQCLEEELKPLEEVLNLAQSKNFHLRPRDLIANINVIVLELKGSETTFMCEYADETATIVEFLNRWITFCQSIISTLT light: DTVLTQSPALAVSPGERVTISCRASESVRTGVHWYQQKPGQQPKLLIYGASNLESGVPARFSGSGSGTDFTLTIDPVEADDTATYFCQQSWNDPFTFGSGTKLEIKRTVAAPSVFIFPPSDEQLKSGTASVVCLLNNFYPREAKVQWKVDNALQSGNSQESVTEQDSKDSTYSLSSTLTLSKADYEKHKVYACEVTHQGLSSPVTKSFNRGEC | 32.5 nM | 0.00405 s⁻¹ | 124000 M⁻¹ s⁻¹ | no binding (tested: 300 nM) |  |  |  |  |
| 1H3-hIgG1-L6-hIL-2 (F42K/Y45R/Q126D) (other, Built as m13) heavy: EVQLVESGGGLVQPGRSLKLSCAVSGFTFSDYAMAWVRQAPKKGLEWVATISYDGSRTYYRDSVKGRFTISRDNAKITLYLQMDSLRSEDTATYYCARHGSGYFDYWGQGVMVTVSS[not shown - human IgG1 constant region]SGGGGSAPTSSSTKKTQLQLEHLLLDLQMILNGINNYKNPKLTRMLTKKFRMPKKATELKHLQCLEEELKPLEEVLNLAQSKNFHLRPRDLISNINVIVLELKGSETTFMCEYADETATIVEFLNRWITFCDSIISTLT light: DTVLTQSPALAVSPGERVTISCRASESVRTGVHWYQQKPGQQPKLLIYGASNLESGVPARFSGSGSGTDFTLTIDPVEADDTATYFCQQSWNDPFTFGSGTKLEIKRTVAAPSVFIFPPSDEQLKSGTASVVCLLNNFYPREAKVQWKVDNALQSGNSQESVTEQDSKDSTYSLSSTLTLSKADYEKHKVYACEVTHQGLSSPVTKSFNRGEC |  |  |  |  | 9.16 nM | 0.00344 s⁻¹ | 375000 M⁻¹ s⁻¹ | no binding (tested: 300 nM) |
| 1H3-hIgG1-L6-hIL-2 (H16A) (other, Built as m13) heavy: EVQLVESGGGLVQPGRSLKLSCAVSGFTFSDYAMAWVRQAPKKGLEWVATISYDGSRTYYRDSVKGRFTISRDNAKITLYLQMDSLRSEDTATYYCARHGSGYFDYWGQGVMVTVSS[not shown - about 450 residues with a human IgG1 Fc and changes] light: DTVLTQSPALAVSPGERVTISCRASESVRTGVHWYQQKPGQQPKLLIYGASNLESGVPARFSGSGSGTDFTLTIDPVEADDTATYFCQQSWNDPFTFGSGTKLEIKRTVAAPSVFIFPPSDEQLKSGTASVVCLLNNFYPREAKVQWKVDNALQSGNSQESVTEQDSKDSTYSLSSTLTLSKADYEKHKVYACEVTHQGLSSPVTKSFNRGEC | 1.68 nM | 0.000287 s⁻¹ | 171000 M⁻¹ s⁻¹ |  | 1.78 nM | 0.00276 s⁻¹ | 1.55e+06 M⁻¹ s⁻¹ |  |
